# Measurements reported in the supplement of paper PMC7826260.
# This is one part of the list. Viral Rep nickase domains cut single-stranded DNA in vitro (1 h at 37 °C, 3 µM enzyme); the outer parts of the 90-letter strands are left off. The score is log2 (uncut reads / reads without enzyme); strong cutting gives strongly negative numbers. There is no active / inactive call. Because reads are shares of a total, they shift together; uncut strands gain when others are lost, and binding without cutting may add a little.
# Tested on: T1, Rep nickase domain of maize striate mosaic virus
# T1 sequence (residues 1-117 of Rep, tag left off): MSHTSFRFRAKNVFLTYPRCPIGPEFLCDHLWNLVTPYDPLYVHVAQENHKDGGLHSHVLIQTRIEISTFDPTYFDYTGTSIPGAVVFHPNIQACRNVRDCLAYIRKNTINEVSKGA
# Assay: uncleaved DNA left, log2 of reads against the no-enzyme library (log2 ratio); higher = less cleavage (more negative = more Rep cleavage of the k-mer); sequences stand for … in CTCGTCCG…ACCGGAGA
# Experimental: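 A pool of 90-nt single-stranded DNAs with seven random bases just before the constant AC of the nick site (name = the seven bases) was cut by 3 µM recombinant His6-SUMO-tagged Rep nickase domain (300 nM DNA, 50 mM HEPES pH 8.0, 50 mM NaCl, 1 mM MnCl2, 1 h, 37 °C, three replicates). Uncut DNA was amplified and sequenced.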
row,Sequence,uncleaved DNA left (log2)
1,CCGCCTG,0.898
2,ATGCTCA,-0.767
3,GTCCACA,1.56
4,CTGTGCT,-1.1
5,ATAAAGT,-0.939
6,GCGTATG,1.03
7,ATCCGAA,-0.436
8,TACAAGA,-0.892
9,CGCCAAC,-0.311
10,CCGTTAT,-0.147
11,TAGTAGC,-1.22
12,GTCGGGC,1.57
13,CCATGCT,-0.972
14,TGGCATC,1.84
15,CTTGTGT,-0.911
16,CACTCGT,-1.27
17,GTGTGAG,-0.727
18,CTTCGGG,-0.743
19,GGACTAT,2.29
20,ATAACGG,1.14

row,Sequence,uncleaved DNA left (log2)
1,TAGCGTT,-1.08
2,GTTGTTG,-0.488
3,TTAACAG,-1.13
4,AGTGGGC,0.34
5,GCCAGAC,0.634
6,ACACGCG,1.89
7,GTATGTT,1.49
8,ACTCCCA,-0.511
9,GACTCTC,0.585
10,AAGAGGG,-0.591
11,CCTAACC,-0.769
12,TATGTCA,-0.533
13,AGGAAGG,0.187
14,TGTATGG,0.855
15,CGTTTTT,-0.0906
16,CCGCGGA,-0.512
17,TCTCAAA,-0.191
18,CCGGACT,1.63
19,CCTTTAA,-0.755
20,GCTAGGA,0.0653
